Reference: the supplement of paper PMC3334620
The full ranking holds about 33,000 sequences; the median of “E-score (-0.5 to 0.5)” is about -0.011, and the highest 2% start at about 0.28. Some of the results follow.

These sequences were tested against T1, Gcr1 (UniProt P07261) (assay: PBM E-score (8-mer binding enrichment) (E-score (-0.5 to 0.5)); higher = stronger / more preferred TF binding; most listed sequences are background and not binding sites). Conditions: protein concentration: 100 nM; construct: GST-full length.
T1 sequence: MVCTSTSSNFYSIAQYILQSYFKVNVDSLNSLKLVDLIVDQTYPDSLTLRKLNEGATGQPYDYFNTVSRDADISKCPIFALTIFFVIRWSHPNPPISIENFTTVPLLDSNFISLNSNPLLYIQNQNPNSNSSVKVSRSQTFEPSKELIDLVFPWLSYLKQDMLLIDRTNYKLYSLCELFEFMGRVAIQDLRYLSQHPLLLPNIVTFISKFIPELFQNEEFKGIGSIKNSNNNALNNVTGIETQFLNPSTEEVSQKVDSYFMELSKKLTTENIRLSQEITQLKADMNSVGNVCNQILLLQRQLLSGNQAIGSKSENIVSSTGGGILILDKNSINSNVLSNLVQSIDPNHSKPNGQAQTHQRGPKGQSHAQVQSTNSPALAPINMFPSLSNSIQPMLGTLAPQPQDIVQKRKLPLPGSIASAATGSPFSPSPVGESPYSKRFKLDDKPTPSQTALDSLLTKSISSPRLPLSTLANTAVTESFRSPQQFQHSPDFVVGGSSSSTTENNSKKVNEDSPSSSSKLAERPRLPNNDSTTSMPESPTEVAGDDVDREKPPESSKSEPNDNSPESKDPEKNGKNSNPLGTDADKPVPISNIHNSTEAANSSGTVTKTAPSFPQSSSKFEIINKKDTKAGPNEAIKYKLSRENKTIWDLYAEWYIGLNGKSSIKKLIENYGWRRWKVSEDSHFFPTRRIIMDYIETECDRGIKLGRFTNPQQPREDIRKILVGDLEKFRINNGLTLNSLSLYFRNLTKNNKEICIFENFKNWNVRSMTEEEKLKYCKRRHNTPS
How it was run: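 PURExpress in vitro transcription/translation supplied GST-tagged yeast transcription factors, either full-length or DNA-binding domain. Applied at about 100-200 nM to universal all-10-mer Agilent arrays double-stranded by primer extension, the bound protein was detected with fluorescent anti-GST. E-scores, modified Wilcoxon-Mann-Whitney statistics, were given by the Universal PBM Analysis Suite to ungapped eight-base words pooled with their reverse complements after masliner normalisation.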

Sequence | PBM E-score
CACAGGAG | 0.0888
CTCGAACC | -0.108
CTGTGTGC | -0.141
CGCTACGA | -0.181
CGTGCCCC | -0.199
ATGCGTCC | -0.113
GGACGCAA | 0.184
ATAGTAAC | 0.0697
GCGAGCTA | -0.12
AGAGTAAA | -0.0626
ACGTTACT | -0.166
TCAAAGCA | 0.0441
AACACAAA | 0.0128
CATTGTCG | -0.205
ACAGTCAA | -0.113
AAATTCCT | 0.0803
CGTGTCAG | 0.00453
CAGGCTAG | -0.336
ACGCACGA | 0.0691
ATAGTTCG | -0.0128
CTGTGAAA | 0.0928
ACGACCTC | 0.0804

Sequence | PBM E-score
AGGTATTG | 0.0481
GAACACTA | -0.192
ATTGTTTA | -0.0373
CTTGTTCC | 0.0403
CATTGTAG | 0.101
GAAACTAC | 0.0478
ATATACAT | 0.165
CCTCCAGC | -0.201
GCTACGAC | -0.107
AGCTGCTA | 0.226
CACTAATC | 0.0878
CATTTTTA | 0.0158
CACTTCTG | -0.0677
CATGAGTC | -0.011
TAGAGCCA | -0.119
AATGAATC | -0.0524
GCTACACA | -0.124
CTGGAAAC | 0.196
ACCGGCAG | 0.159
CAGCGCGC | 0.0842
AACGACTC | 0.0258
GACGTTCA | -0.193

Sequence | PBM E-score
GCGGCCCA | -0.136
TGCTTTAA | 0.00539
CTATTCCC | -0.0625
ATTGGGAA | 0.152
GGAAAACC | -0.0228
GCCCGTCA | 0.0663
CTACATTC | 0.0281
GTTCTTGA | 0.0128
GCGTCGAC | -0.115
CATCCATC | -0.171
CACGAATC | 0.131
CGTATACA | 0.159
ATCGTTCG | 0.11
GAGCCCTA | -0.0321
ATTAGTAA | 0.15
AATCCTGA | 0.147
CATGTTCA | -0.103
CCCTTACA | -0.0411
CCGAGTGC | 0.00066
ACTTAGCC | -0.209
CGCTGTTA | -0.0384
AATGTGTG | -0.0856

Sequence | PBM E-score
ACATATCT | -0.0253
CTTTTTGA | 0.115
CCTTGACA | -0.0879
AGTGGGTG | 0.137
AACCCTGG | 0.0629
AGCAGGAG | -0.13
ATTGTGTA | 0.0943
AGAGTCAG | -0.0831
CCACCACA | 0.0143
AACAAAGG | -0.238
CCGACTTA | 0.0789
GTGTCGAA | -0.132
AGATGATA | 0.0452
AACCTAAA | 0.294
AAACAGCT | 0.0222
GAAGCAGA | 0.11
GAAGCCAC | 0.417
GATGAATA | -0.112
AGGTACGA | 0.147
CCCGTCAA | -0.0554
